From US20140031278A1, “Novel Glucagon Analogues” (NOVO NORDISK A/S, priority 2011, published 2014)
At least one compound was matched to its structure with a doubt left. *1 amine or outer side, *2 acyl side, *3 side chain or, on linkers, in order; H or OH if unused. Where a SMILES comes first, the peptide text is derived from it. Side-chain parts run from the residue outwards. γGlu = O=C(O)[C@H](CCC(=O)[*:2])N[*:1]

Legend:
[1] = ThT fibrillation assay for physical stability (lag time, recovery); type: physicochemical; conditions: for ThT assay [Lag time]: absence of increased ThT fluorescence noted as lag time of 45 hours; for ThT assay [Recovery]: peptide concentration in filtered supernatant after ThT assay as percentage of initial
[2] = Assay (V) Long-term storage stability in Penfill (visual inspection, turbidity); type: physicochemical; conditions: 250 μM peptide (Aib analogue 125 μM); for Visual insp.: pH 7.4, Penfill
[3] = 4 w @ 25° C., pH 7.4, single Penfill
[4] = 4 w @ 37° C., pH 7.4, single Penfill
[5] = 8 w @ 25° C., pH 7.4, single Penfill
[6] = 16 w @ 25° C., pH 7.4, single Penfill
[7] = 24 w @ 5° C., pH 7.4, single Penfill
[8] = 24 w @ 25° C., pH 7.4, single Penfill
[9] = Start, minimum and maximum of all Penfill, pH 7.4

Compound | ThT assay [Lag time] [1] | ThT assay [Recovery] [1] | Visual insp. ([2]; 4 w @ 25° C.) | NTU (Nephelometric Turbidity Units) [2, 3] | Visual insp. ([2]; 4 w @ 37° C.) | NTU (Nephelometric Turbidity Units) [2, 4] | Visual insp. ([2]; 8 w @ 25° C.) | NTU (Nephelometric Turbidity Units) [2, 5] | Visual insp. ([2]; 16 w @ 25° C.) | NTU (Nephelometric Turbidity Units) [2, 6] | Visual insp. ([2]; 24 w @ 5° C.) | NTU (Nephelometric Turbidity Units) [2, 7] | Visual insp. ([2]; 24 w @ 25° C.) | NTU (Nephelometric Turbidity Units) [2, 8] | NTU (Nephelometric Turbidity Units) [2, 9] | Visual insp. ([2]; Start)
CC(=O)N[C@@H](CCC(=O)N[C@@H](CCC(=O)N[C@@H](CCC(=O)N[C@@H](CCC(=O)NCCCC[C@H](NC(=O)[C@@H](NC(=O)[C@H](Cc1ccccc1)NC(=O)[C@H](CC(=O)O)NC(=O)[C@H](C)NC(=O)[C@H](C)NC(=O)[C@H](CCCNC(=N)N)NC(=O)[C@H](CCCNC(=N)N)NC(=O)[C@H](CO)NC(=O)[C@H](CC(=O)O)NC(=O)[C@H](CC(C)C)NC(=O)[C@H](Cc1ccc(O)cc1)NC(=O)[C@H](CCCCN)NC(=O)[C@H](CO)NC(=O)[C@H](Cc1ccc(O)cc1)NC(=O)[C@H](CC(=O)O)NC(=O)[C@H](CO)NC(=O)[C@@H](NC(=O)[C@H](Cc1ccccc1)NC(=O)[C@@H](NC(=O)CNC(=O)[C@H](Cc1c[nH]cn1)NC(=O)[C@H](CO)NC(=O)[C@@H](N)Cc1c[nH]cn1)[C@@H](C)O)[C@@H](C)O)C(C)C)C(=O)N[C@@H](Cc1c[nH]c2ccccc12)C(=O)N[C@@H](CC(C)C)C(=O)N[C@@H](CC(C)C)C(=O)N[C@@H](CO)C(=O)N[C@H](C(=O)O)[C@@H](C)O)C(=O)O)C(=O)O)C(=O)O)C(=O)O [Example 4, N^ε24-[(4S)-4-[[(4S)-4-[[(4S)-4-[[(4S)-4-acetamido-4-carboxybutanoyl]amino]-4-carboxybutanoyl]amino]-4-carboxybutanoyl]amino]-4-carboxybutanoyl]-[His3,Ala20,Lys24,Leu27,Ser28]-Glucagon] (H-HSHGTFTSDYSKYLDSRRAADFVK([γGlu-γGlu-γGlu-γGlu-Ac])WLLST-OH) | 45 h | 100% | Clear | 0.394 NTU | Clear | 0.374 NTU | Clear | 0.493 NTU | Clear | 0.494 NTU | Clear | 0.535 NTU | Clear | 0.477 NTU | 0.339-0.557 NTU | Clear
CC(C)C[C@H](NC(=O)[C@H](Cc1c[nH]c2ccccc12)NC(=O)[C@H](CCCCNC(=O)CC[C@H](NC(=O)CC[C@H](NC(=O)CC[C@H](NC(=O)CC[C@H](N)C(=O)O)C(=O)O)C(=O)O)C(=O)O)NC(=O)[C@@H](NC(=O)[C@H](Cc1ccccc1)NC(=O)[C@H](CC(=O)O)NC(=O)[C@H](C)NC(=O)[C@H](C)NC(=O)[C@H](CCCNC(=N)N)NC(=O)[C@H](CCCNC(=N)N)NC(=O)[C@@H](NC(=O)[C@H](CC(=O)O)NC(=O)[C@H](CC(C)C)NC(=O)[C@H](Cc1ccc(O)cc1)NC(=O)[C@H](CCCCN)NC(=O)[C@H](CO)NC(=O)[C@H](Cc1ccc(O)cc1)NC(=O)[C@H](CC(=O)O)NC(=O)[C@H](CO)NC(=O)[C@@H](NC(=O)[C@H](Cc1ccccc1)NC(=O)[C@@H](NC(=O)CNC(=O)[C@H](Cc1c[nH]cn1)NC(=O)[C@H](CO)NC(=O)[C@@H](N)Cc1c[nH]cn1)[C@@H](C)O)[C@@H](C)O)[C@@H](C)O)C(C)C)C(=O)N[C@@H](CC(C)C)C(=O)N[C@@H](CO)C(=O)N[C@H](C(=O)O)[C@@H](C)O [Example 7, N^ε24-[(4S)-4-[[(4S)-4-[[(4S)-4-[[(4S)-4-amino-4-carboxybutanoyl]amino]-4-carboxybutanoyl]amino]-4-carboxybutanoyl]amino]-4-carboxybutanoyl]-[His3,Thr16,Ala20,Lys24,Leu27,Ser28]-Glucagon] (H-HSHGTFTSDYSKYLDTRRAADFVK([γGlu-γGlu-γGlu-γGlu])WLLST-OH) | 45 h | 100% | Clear | 0.542 NTU | Clear | 0.586 NTU | Clear | 0.496 NTU | Clear | 0.586 NTU | Clear |  | Clear | 0.473 NTU | 0.443-0.741 NTU | Clear
CC(=O)N[C@@H](CCC(=O)N[C@@H](CCC(=O)N[C@@H](CCC(=O)N[C@@H](CCC(=O)NCCCC[C@H](NC(=O)[C@@H](NC(=O)[C@H](Cc1ccccc1)NC(=O)[C@H](CC(=O)O)NC(=O)[C@H](C)NC(=O)[C@H](C)NC(=O)[C@H](CCCNC(=N)N)NC(=O)[C@H](CCCNC(=N)N)NC(=O)[C@H](Cc1ccccc1)NC(=O)[C@H](CC(=O)O)NC(=O)[C@H](CC(C)C)NC(=O)[C@H](Cc1ccc(O)cc1)NC(=O)[C@H](CCCCN)NC(=O)[C@H](CO)NC(=O)[C@H](Cc1ccc(O)cc1)NC(=O)[C@H](CC(=O)O)NC(=O)[C@H](CO)NC(=O)[C@@H](NC(=O)[C@H](Cc1ccccc1)NC(=O)[C@@H](NC(=O)CNC(=O)[C@H](Cc1c[nH]cn1)NC(=O)[C@H](CO)NC(=O)[C@@H](N)Cc1c[nH]cn1)[C@@H](C)O)[C@@H](C)O)C(C)C)C(=O)N[C@@H](Cc1c[nH]c2ccccc12)C(=O)N[C@@H](CC(C)C)C(=O)N[C@@H](CC(C)C)C(=O)N[C@@H](CO)C(=O)N[C@H](C(=O)O)[C@@H](C)O)C(=O)O)C(=O)O)C(=O)O)C(=O)O [Example 12, N^ε24-[(4S)-4-[[(4S)-4-[[(4S)-4-[[(4S)-4-acetamido-4-carboxybutanoyl]amino]-4-carboxybutanoyl]amino]-4-carboxybutanoyl]amino]-4-carboxybutanoyl]-[His3,Phe16,Ala20,Lys24,Leu27,Ser28]-Glucagon] (H-HSHGTFTSDYSKYLDFRRAADFVK([γGlu-γGlu-γGlu-γGlu-Ac])WLLST-OH) | 45 h | 100% | Clear | 0.463 NTU | Clear | 0.544 NTU | Clear | 0.384 NTU | Clear | 0.343 NTU | Clear | 0.599 NTU | Clear | 0.363 NTU | 0.378-0.711 NTU | Clear
